What all share (assay): NCI-60 one-dose screen, 48 h (100 = growth as untreated, 0 = no growth, -100 = all killed)
One assay deals with HCT-116 colon. The note with it: 2.5 mM; runs of 2000.
The next assay concerns HCC-2998 colon. The note with it: 2.5 mM.
The next assay relates to KM12 colon. The following applies: 2.5 mM.

SMILES strings stand for the structures. Some compounds were tested as several samples or in several runs, with calls that do not always agree.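 Percent growth is the endpoint: 0 to 100 indicates growth inhibition (40 means 60% inhibition), 0 means no net growth, and negative values indicate cell death.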 Not every entry of the source has a single result; some have several. The list is limited to them. The calls were made as follows: active = growth percent below 10; inactive = the rest. There may be further records. This drug was run again and again over the years, at the concentration stated with the values; one value stands for one run. Brackets with × stand for listed records that agree.

With `O=c1[nH]cc(F)c(=O)[nH]1`, the growth entry is “active: -91, -60.3, -78.5, -54.1%” in the assay with HCT-116 colon; “active: 9.62, 3.54, 1.5, 8.27, -4.68, 9.09, -3.36% and inactive: 23.9, 33.9, 19.1, 19, 28.7, 12.2, 23.1, 29.1, 21.9, 17.3%” with HCC-2998 colon (runs of 1991); “inactive: 14.1, 11.3, 33.6, 26.6 (3×), 14.6 (2×), 14.7 (2×), 21.4, 34.8, 21.8, 68.4, 25.4, 40.5, 19.7, 10.4, 24.5, 13, 15.2, 41.5, 40, 10.7, 13.4, 15.7, 18.6, 20.4, 17, 15.1, 10.8, 47.2, 25.5, 26.5, 15.4, 14.3 (2×), 34.4, 37.7, 14.5, 16.5 (2×), 23.9, 21.5, 22.9, 10.5, 16.3, 14.9, 43.7, 37.1, 18.8, 62.2, 48.4% and active: 4.74, -23.9, -11.9, 4.9, 8.37, -6.63, -23.1, -26.1, -28.1, -4.61, -12.3, 1.02, -27.6, 6.48, 1.5, -12, 0.967, -5.8, 7.46, 6.56, 6.6, -7.31, 6.04, -6.01, 7.29, -16.9, -5.33, -4.54, 7.19, 9.95, 3.38, 7.48, 0.461, 8.96, -3.94, -25.9, 5.26, -29.5, -22.9, -15, -2.48, -30.3, 6.5, 5.36, 0.601, -28.3, 1.1, -4.72, -27.4, -5.67, -11.6, 1.64, 5.29, -18.4, 5.68, 7.36, 8.22, -10.9, 3.45, 7.97, -5.24%” in the assay with HCC-2998 colon (runs of 1992); “inactive: 25.1, 16, 27.4, 26, 15.6, 40.9, 30.7, 10.8, 15.7, 30.6, 29.7, 23.4, 43.8, 22.4, 10.1, 26.2, 19.5, 56.1, 20.2, 12, 28.1, 46.3, 39.9, 104, 25.6, 13.6, 59.9, 23.6, 18.7, 39.5, 30.3, 42.2, 19.8, 36.8, 28.6% and active: 1.67, 1.68, -5.15, -11.9, 5.85, -15.1, 5.28, 6.49, 8.26, 3.89, 6.3, 5.94%” with HCC-2998 colon (runs of 1993); “inactive: 33.8, 31.7, 52.5, 37.9, 25, 13.9 (2×), 15.5, 55.6, 51.4, 30.1, 20.9, 26.9, 18.6, 14.4, 13.8, 27.8, 45.9, 21.5% and active: 3.17, 5.57, 9.73, 5.27, 9.05, -12.8, -38.1, -13, 4.64, -47.2, -6.72, -5.11, -49.2, -19%” in the assay on HCC-2998 colon (runs of 1994); “inactive: 55.3, 23.3, 18.6, 22.8 (2×), 36.1, 30.8, 33, 21.3, 68.3, 19.9, 16.3, 17.7, 33.8, 15.3, 67.7, 23, 35, 20.7, 36.6, 26.2% and active: 8.67, 4.1, -4.39, -26.5, 9.99, -6.47, -5.58, -2.53, -35.7, 3.39, 1.71, 7.41, 7.24, -25.2, -22.7, 8.36, -18%” in the assay with HCC-2998 colon (runs of 1995). The growth result was “inactive: 32.9, 31.4, 13.5, 13.2, 24.1 (2×), 27 (2×), 27.2, 23.9, 29.8, 23, 30.1, 21.5, 25, 33.2, 47.6, 21.6, 27.8, 17.9, 22.6, 33.3, 20.8, 18.5, 44.5, 26.6, 16.7, 15, 24.9, 24.2, 21.7, 20.6, 14.1, 36.5, 23.2, 25.8, 40.3, 23.7, 10.7, 28.2, 17.3% and active: 8.45, 7.45, -2.36, 4.94, 7.49, -30.3, -51.4, 0.916, -3.36, 3.97%” in the assay with HCC-2998 colon (runs of 1996); “inactive: 14.7 (2×), 18.6, 22.7 (2×), 25.3, 37.9, 102, 12.5, 11.9, 50.4, 42.1, 19.8, 23.9, 17.6, 24.3, 38.3, 33.8, 30.5, 31.9, 26.2, 21.8, 11.2, 29.5, 21.6, 13.5, 11.6, 18.9, 33.9, 39.7, 31.2, 16% and active: -44.8, -25.7, -49, -58.5, 4.14%” with HCC-2998 colon (runs of 1997); “inactive: 17.1, 35.3, 33.4, 37.4, 31.1, 45.3, 31.2, 27.9, 10.4, 36.9, 33.5, 24.2, 38.8, 34.5, 16.6, 42, 14.5, 25.8, 11.1% and active: -22.1, 6.85, -22.3, -27.7%” in the assay on HCC-2998 colon (runs of 1998); “inactive: 45.1%, 32% and active: -5.18, -13.8, 0.74, -69.7, -100, -73.3%” in the assay on HCC-2998 colon (runs of 1999); “active: -93.3%, -69.8%, 2.94%” in the assay with HCC-2998 colon (runs of 2000); “active: 9.26, 6.77, -61.3, -100, -0.778, -46.1, -50% and inactive: 21.9 (2×), 12.2, 19.3, 20.7, 24.4, 14.1, 14.4, 16.4, 15.3, 18.9, 25.4%” in the assay with KM12 colon (runs of 1991). Besides, the growth entry in the assay with KM12 colon (runs of 1992) is “active: 9.77, 2.05, -61.8, -30, 2.38, 4.41, -7.6, 4.33, 5.15, -34.8, -63.8, 2.39, -73.1, -27, 7.05, 7.96, 7.53, -16.7, -29.3, -14.5, -48, 4.54, -53, 9.23, -44.4, 6.67, 4.55, 7.48, 8.59, 5.83, 4.13, -26.1, 5.72, 4.9, 4.3, 2.74, 6.97, -37.8, -58.3, 9.82, 0.0319, 7.56, -13.7, 8.06, 9.37, 4.23, 7.18, 3.86, -58.7, -29.9, -29.8, -52.2, 2.76% and inactive: 16.6 (2×), 19.8, 18.4, 24, 29.4, 46.7, 17.4, 16.5, 10.8 (2×), 19.5, 27.4, 19.4, 21.5, 18.2, 20.6, 27.9, 11.3, 17.8, 18.9, 27.6, 19, 96.4, 13.2, 11.4, 15.3, 14.3 (2×), 20.4, 12.9, 19.7, 24.3, 14.8, 21.1, 10.2, 24.1, 11.9, 13.1, 19.6, 16.7, 32.5, 17.3, 23.1, 13.8, 23.6, 11.2, 10.4, 17.5%”; with KM12 colon (runs of 1993), “inactive: 18.4 (2×), 18.9, 19.2 (2×), 12, 17.3 (2×), 21, 21.1, 18.1 (2×), 16.3, 33.1, 19.7, 15.2, 15.9, 14.1, 21.6, 21.9, 16, 22.4, 16.9, 15.3, 17, 10.2, 20.6, 14.5, 21.3, 12.6, 88.3, 11.6 (2×), 104, 16.4, 13.2, 18, 15.5, 25.9, 49.8% and active: 3.27, 3.05, 0.805, 4.87, 8.09, -5.09, 0.484, -7.06, 3.87%”; with KM12 colon (runs of 1994) it was “inactive: 20.1, 22, 15.3, 20, 28, 85.9, 24.3, 13.5, 20.9, 51.3, 12.4, 23.6, 12.3, 21.9, 15.9, 14.9, 25.5, 15.2% and active: 7.89, -10.7, 8.7, -2.27, 4.62, -26.1, 5.06, -27.7, -25.3, -1.8, 1.75, -0.351, -29, -4.74, 5.62%”; in the assay on KM12 colon (runs of 1995) it was “inactive: 23, 16.1, 17.7, 17.3, 12.1, 20.6, 25.9, 14.7 (2×), 15.9, 10.1, 10.8, 20.2, 17.8, 20.4% and active: -37.1, -19.8, 3.32, 8.09, 3.09, 6.66, 2.67, -10.7, 1.82, 9.1, 8.86, 7.97, -44, 6.46, -0.623, 1.56, 9.61, 6.65, 2.79, -12, -21.3, 6.83, -29.8, 6.27, 3.97%”; with KM12 colon (runs of 1996) it was “inactive: 20.4, 21.5, 16.6, 26.3, 20.2, 11.8, 13, 12.6, 13.6, 16.9, 11.4, 18.4, 20.3, 17, 17.3, 14.5, 18.1, 12.8, 19.5, 11.1, 12.4, 10, 13.4, 13.1, 15.1, 14.6, 12.5, 24.3, 14, 10.5, 25.8, 22, 35.6, 12.1, 14.3, 30.7% and active: 5.73, -28.7, -2.76, 8.44, 5.58, 2.27, 8.72, 6.3, 6.33, 8.18, 9.14, 7.61, 7.65, 5.33, 2.19, -28.6, -21.3, 0.386, 6.16, -2.91, -1.42, 9.58, -18.3%”; in the assay on KM12 colon (runs of 1997), “inactive: 11.6, 33, 33.7, 16.6, 26.9, 20, 14, 10.9, 14.8, 13.8, 33.3, 17.8, 11.5, 20.1, 11.3, 16.4, 21.3, 11.8, 27.1, 14.4, 17.9% and active: 4.63, -16, 7.23, 8.56, -6.31, -39.5, -6.48, -24.3, -6.33, 10, 3.29, -40.7, 0.687, -4.57, 7.73, 7.52, 6.17, 9.75, 7.48, 4.21%”. In addition, the growth entry in the assay on KM12 colon (runs of 1998) was “inactive: 21.7, 25.5, 10.5, 20.9, 16.1, 30.8, 18.1, 16.2, 12.9, 17.7, 16, 31.9, 52.7, 28% and active: 4.75, 0.976, -13.9, -4.12, -14.3, -3.6, 3.43, 5.31, -49.6, 6.55, 3.02, 1.67%”; in the assay with KM12 colon (runs of 1999) it was “inactive: 41.1, 23.2, 25.4, 16.5% and active: -8.46, -6.88, 9.17, -78.7, 3.81, -36.5, 0.784, -19.4, -100, -56%”; with KM12 colon (runs of 2000), “active: 6.51, -91.2, -39.1, 1.96%”.

The record behind these values is PubChem BioAssay (NCI).
